# Measurements reported in paper PMC4336329 (PLoS ONE, 2015).
# Out of some 310,000 compounds screened, about 2,200 (0.71%) showed an effect of 50% or more. The effect is printed as a negative number. Some of the results follow.
# Molecular target: human ether-à-go-go-related gene (hERG) potassium channel (human, UniProt Q12809)
# Assay: primary screen, population patch clamp on CHO cells stably expressing hERG
# human ether-à-go-go-related gene (hERG) potassium channel, sequence (Q12809 whole entry, looked up): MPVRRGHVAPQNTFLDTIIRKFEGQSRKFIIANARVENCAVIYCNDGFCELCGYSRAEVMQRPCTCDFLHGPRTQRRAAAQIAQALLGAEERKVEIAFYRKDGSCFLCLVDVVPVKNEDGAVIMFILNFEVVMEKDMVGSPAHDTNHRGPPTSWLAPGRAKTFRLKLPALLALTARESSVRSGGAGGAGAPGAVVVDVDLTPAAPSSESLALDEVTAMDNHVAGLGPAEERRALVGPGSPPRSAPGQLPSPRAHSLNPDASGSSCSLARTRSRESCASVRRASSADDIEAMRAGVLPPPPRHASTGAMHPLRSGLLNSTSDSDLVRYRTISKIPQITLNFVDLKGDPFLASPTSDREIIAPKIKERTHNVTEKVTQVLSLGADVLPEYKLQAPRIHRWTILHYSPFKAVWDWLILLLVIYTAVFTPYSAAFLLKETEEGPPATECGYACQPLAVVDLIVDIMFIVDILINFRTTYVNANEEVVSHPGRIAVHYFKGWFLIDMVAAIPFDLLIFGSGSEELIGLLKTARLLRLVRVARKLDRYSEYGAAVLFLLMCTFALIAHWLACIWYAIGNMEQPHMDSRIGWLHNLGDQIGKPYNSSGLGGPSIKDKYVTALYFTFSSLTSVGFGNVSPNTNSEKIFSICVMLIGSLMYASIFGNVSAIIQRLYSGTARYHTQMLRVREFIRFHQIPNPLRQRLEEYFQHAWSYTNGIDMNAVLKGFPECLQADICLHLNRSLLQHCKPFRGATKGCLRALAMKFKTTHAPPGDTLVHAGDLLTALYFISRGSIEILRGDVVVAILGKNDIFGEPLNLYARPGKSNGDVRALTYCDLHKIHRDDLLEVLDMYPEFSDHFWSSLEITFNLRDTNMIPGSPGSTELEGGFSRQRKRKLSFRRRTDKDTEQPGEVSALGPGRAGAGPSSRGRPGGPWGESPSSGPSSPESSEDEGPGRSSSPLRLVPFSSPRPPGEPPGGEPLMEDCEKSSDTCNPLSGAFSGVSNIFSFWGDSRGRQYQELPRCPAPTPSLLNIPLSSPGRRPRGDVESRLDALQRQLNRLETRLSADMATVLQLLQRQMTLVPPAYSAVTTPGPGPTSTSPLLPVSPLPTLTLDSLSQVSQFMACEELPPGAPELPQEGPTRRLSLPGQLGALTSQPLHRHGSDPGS
row,Structure (SMILES),"hERG current change (%, negative = inhibition) at 1uM [%]"
1,CCOC(=O)N1CCC(n2c(SCC(=O)OCc3ccccc3)nc3ccsc3c2=O)CC1,-4.04
2,CC(=O)C1=C(C)NC(=O)NC1/C=C/c1ccccc1 (centres unmarked),8.73
3,COc1cc(CNn2cn[nH]c2=S)cc(Cl)c1OCc1ccccc1,12.9
4,Cc1ccc2c(c1)-c1c(cnn1CC(=O)N(CCC#N)c1ccccc1)CO2,-29
5,CCOC(=O)C1C(=O)N(O)CC1c1cccc(Oc2ccccc2)c1 (centres unmarked),13.9
6,CCn1c(C(=O)NCCCN2CCc3ccccc3C2)cc2sccc21,-48.1
7,COc1ccc(NC(=O)C2CCCN(C)C2)cc1OCC(C)C (centres unmarked),-2.36
8,COc1ccc(N2C(=O)CC(N(CCc3ccccc3)C(=O)/C=C/C(=O)O)C2=O)cc1 (centres unmarked),3.01
9,C=CCNc1nnc(C)c2ccccc12,12.2
10,COCCN(Cc1cc2cc(C)c(C)cc2nc1Cl)C(=O)Nc1ccccc1,10.7
11,N/C(=N\OS(=O)(=O)c1ccccc1)c1ccccn1,-4.14
12,CC(C)c1c(C(=O)N/N=C/C2CC=CCC2)nnn1-c1nonc1N (centres unmarked),6.89
13,Cc1cccc(NC(=O)CNC(=O)C(NC(=O)Cc2ccccc2)C(C)C)c1C (centres unmarked),3.64
14,Fc1cccc(CN2CCN(C(=S)NCCc3ccccc3)CC2)c1,3.14
15,Cn1c(N)c(C(=O)COC(=O)c2cc(C3CC3)nc3ccccc23)c(=O)n(C)c1=O,-17.7
16,CC(Sc1nnnn1C)C(=O)Nc1nc(-c2ccc(F)c(F)c2)cs1 (centres unmarked),1.16
17,CCOc1ccccc1NC(=O)c1ccc(C(=O)Nc2ccccc2OCC)nc1,20.3
18,CN(Cc1ccccc1)C(=O)c1ccccc1-c1ccccc1,6.36
19,O=C1C(Oc2ccc(Cl)cc2)C(c2ccc3c(c2)OCO3)N1CC1CCCO1 (centres unmarked),4.94
20,Cl.c1ccc(C2CC2)c(OCC2=NCCN2)c1,7.71
21,CCO[C@H]1OC(C(=O)N2CCN(C)CC2)=C[C@@H](c2csc3ccccc23)[C@@H]1CCCO,3.77
22,CCN(CC(=O)NC(c1ccccc1)c1ccccc1)Cc1nc2ccccc2c(=O)[nH]1,9.16
23,COC(=O)c1ccc(N2C(=O)CC(NCc3ccccc3)C2=O)cc1 (centres unmarked),10.7

row,Structure (SMILES),"hERG current change (%, negative = inhibition) at 1uM [%]"
1,O=C(NCc1ccccc1)c1nncc(-c2ccccc2)n1,3.9
2,CSc1nc(-c2ccccc2)nc(NC(=O)c2ccccc2)c1C(C)=O,10.8
3,Cn1nc(C(F)(F)F)c2cc(C(=O)Nc3ccc(Cl)cc3)sc21,6.22
4,CCOc1ccccc1-c1nnc(SCC(=O)Nc2ccccc2)o1,9.59
5,CCOc1ccc(S(=O)(=O)N(C)CC(=O)NCc2ccc3c(c2)OCO3)cc1,-21.6
6,COCCN(CC(=O)Nc1cccc(C)c1C)C(=O)c1cc2ccccc2cc1OC,3.27
7,O=C(O)c1ccccc1C(=O)O,4.51
8,Cc1sc2ncn(CC(=O)NCCCN3CC(C)CC(C)C3)c(=O)c2c1S(=O)(=O)N1CC(C)CC(C)C1 (centres unmarked),12.5
9,O=C(CSc1nnc(Cn2c(=O)sc3ccccc32)n1-c1ccccc1)NCc1ccco1,-1.14
10,C/C=C\C(=O)Nc1cccc(C2=NOC3(C2)C[C@@H](C(N)=O)N(C(=O)CC(c2ccccc2)c2ccccc2)C3)c1 (some centres unmarked),6.71
11,O=C(N/N=C/c1ccccc1C(=O)O)c1ccncc1,13.5
12,Br.C=CCn1c(C)csc1=Nc1ccc(C(=O)O)cc1,9.66
13,O=C(Cc1cccs1)NCCS(=O)(=O)N1CCN(c2cccc(Cl)c2)CC1,-5.58
14,CC(C)(C)[C@H]1C=C(C(=O)Nc2ccccc2)O[C@@H](OCc2ccc(CO)cc2)C1,10.8
15,COC(=O)c1cc(NC(=O)Cn2c(=O)oc3ccccc32)cc(C(=O)OC)c1,26.2
16,CN(C)S(=O)(=O)c1cccc(COC(=O)CN2CCCCCC2=O)c1,11.4
17,COc1ccc(C(=O)NNC(=S)NC(=O)/C=C/c2cccs2)cc1,8.39
18,Cc1cc(C)cc(C(=O)Nc2nnc(SCC(=O)NCC3CCCO3)s2)c1 (centres unmarked),14.5
19,COc1ccc(NC(=O)CN2C(=O)NC(c3ccccc3)(c3ccccc3)C2=O)cc1,-33.1
20,COc1ccc(C2Nc3ccccc3C(=O)N2C2CCCCC2)cc1 (centres unmarked),8.62
21,COc1ccc(S(=O)(=O)N2CCOCC2)cc1NC(=O)CSc1nnnn1C1CC1,4.58
22,COCC(=O)N(Cc1nc2ccccc2c(=O)[nH]1)Cc1cccs1,15.4
23,CCOc1ccccc1N1CCN(C(=S)Nc2ccc(S(N)(=O)=O)cc2)CC1,13.1

row,Structure (SMILES),"hERG current change (%, negative = inhibition) at 1uM [%]"
1,COc1cccc(C(=O)C2CCCN(Cc3cnn(C(C)C)c3)C2)c1 (centres unmarked),-5.98
2,O=C(NC1=NCCS1)c1ccc(Cl)s1,19.4
3,CCOc1ccc(S(=O)(=O)NCc2ccc(F)cc2)c2cccnc12,7.59
4,COC(=O)c1cccc(Cn2c(Cl)c(/C=N/Nc3ccccc3C)sc2=O)c1,10.6
5,CC(C)CCNC(=O)NC(=O)COc1ncnc2sccc12,2.17
6,Cc1oc(-c2ccccc2F)nc1CS(=O)CC(=O)NC1CC1 (centres unmarked),6.59
7,O=[N+]([O-])CC(c1ccccc1)P(=O)(c1ccccc1)c1ccccc1 (centres unmarked),17.1
8,Cc1ccc(NS(=O)(=O)c2ccc(NC(=O)CSc3ccc(Cl)cc3)cc2)c(C)c1,8.51
9,NC(=S)N/N=C/c1cn(CCC(=O)O)nc1-c1cccc(Br)c1,18.7
10,CCOC(=O)CN1C(=O)SC(Nc2ccc(C)cc2)C1=O (centres unmarked),26.8
11,Cc1oc(-c2ccc(Cl)cc2)nc1CN1CCC(C(=O)N2CCN(Cc3ccccc3)CC2)CC1,-48.1
12,Cc1ccc(C(=O)COC(=O)C(C)N2C(=O)C3C4CCC(C4)C3C2=O)cc1 (centres unmarked),5.06
13,CC1CC(C)CN(C(=O)C(Cc2ccccc2)n2cccc2)C1 (centres unmarked),4.59
14,Cc1cccc(NC(=O)CN2C(=O)N/C(=C\c3ccc(-c4cccc(C(=O)O)c4)o3)C2=O)c1,19.3
15,O=C(Nc1ccc(Cl)cc1)Nc1ccccc1C(=O)O,9.11
16,Cc1ccc(OCc2cc(C(=O)NCC(C)c3ccccc3)no2)cc1C (centres unmarked),6.28
17,O=c1oc(-c2cccnc2)nc2ccccc12,9.53
18,CCOC(=O)CSC1=NC(=O)/C(=C\c2ccc(OC(C)=O)cc2)S1,6.32
19,O=C(/C=C/c1ccncc1)c1ccc2c(c1)OCCO2,6.41
20,CC(C)=CCN1CCN(Cc2cccn2-c2ccccn2)CC1CCO (centres unmarked),-19.9
21,COc1ccc(/C(N)=N/O)cc1O,14.4
22,Cl.Oc1ccc(Cl)cc1CNCc1ccc(C(F)(F)F)cc1,-0.514
23,COc1ccc(C(=O)Nc2ccc(S(=O)(=O)Nc3nccc(C)n3)cc2)cc1OC,10

row,Structure (SMILES),"hERG current change (%, negative = inhibition) at 1uM [%]"
1,Cc1cc(/C=N/N2CCN(C)CC2)c(C)n1-c1ccc(Cl)cc1,0.128
2,C=C(C)c1cccc(C(C)(C)NC(=O)NCCCn2ccnc2)c1,8.31
3,c1ccc(C2CC3CC4(CCCC4)N2O3)cc1 (centres unmarked),7.75
4,CN1CCN(c2nc(-c3ccccc3)nc3c2oc2ccccc23)CC1,1.62
5,CC1(c2ccccc2)CC(C)(C)N(C(=O)C2CCCO2)c2ccccc21 (centres unmarked),8.62
6,Cc1ccc(C(=O)N/C(=C\c2ccc(-c3ccc([N+](=O)[O-])cc3)o2)C(=O)NC2CCS(=O)(=O)C2)cc1 (centres unmarked),10.8
7,CC(=O)Nc1cccc(N(C)S(C)(=O)=O)c1,4.72
8,COc1ccc(CN2CCNC(=O)C2CC(=O)N(C)Cc2ccon2)c(F)c1 (centres unmarked),16.2
9,CNC(=O)/C(C#N)=C\c1cc(C)n(-c2ccc(N3CCOCC3)cc2)c1C,9.89
10,CN1CCN(c2ccc(CNS(=O)(=O)c3ccsc3)cc2)CC1,4.42
11,Cc1nnc(SCC(=O)Nc2cccc(N)c2)n1-c1ccccc1,10.9
12,C=CCn1c(SC(C)C(=O)NC2CC2)nnc1-c1ccoc1C (centres unmarked),6.23
13,CNC(=O)CSc1nnnn1-c1ccc(C)cc1C,9.61
14,Cn1cc([N+](=O)[O-])c(C(=O)NCC(=O)O)n1,10.7
15,COc1cc(C(=O)OCC(=O)NCc2ccc(F)cc2)ccc1OCC(C)C,7.86
16,Cc1ccsc1C(=O)OCC(=O)NCc1ccco1,13.9
17,Cl.O=C(N/N=C1/CN2CCC1CC2)c1cccc(O)c1,9.31
18,Cc1c(Br)c([N+](=O)[O-])nn1CC(=O)N1CCCc2ccccc21,14.9
19,Cc1cc2c(NC(=O)CCCC(=O)O)cccc2nn1,11.3
20,CC1=CCC(C(=O)O)C(C(=O)O)C1 (centres unmarked),12.5
